About 14,000 (4.5%) of roughly 310,000 compounds showed an effect of 50% or more. The effect is printed as a negative number. The list shows a part of the results.
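Note: peak tail current of the secondary pulse compared with the same well before compound.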

The target of this assay is human ether-à-go-go-related gene (hERG) potassium channel (human, UniProt Q12809). The experiment in a line: primary screen, population patch clamp on CHO cells stably expressing hERG.
Chain of human ether-à-go-go-related gene (hERG) potassium channel (Q12809 whole entry, looked up): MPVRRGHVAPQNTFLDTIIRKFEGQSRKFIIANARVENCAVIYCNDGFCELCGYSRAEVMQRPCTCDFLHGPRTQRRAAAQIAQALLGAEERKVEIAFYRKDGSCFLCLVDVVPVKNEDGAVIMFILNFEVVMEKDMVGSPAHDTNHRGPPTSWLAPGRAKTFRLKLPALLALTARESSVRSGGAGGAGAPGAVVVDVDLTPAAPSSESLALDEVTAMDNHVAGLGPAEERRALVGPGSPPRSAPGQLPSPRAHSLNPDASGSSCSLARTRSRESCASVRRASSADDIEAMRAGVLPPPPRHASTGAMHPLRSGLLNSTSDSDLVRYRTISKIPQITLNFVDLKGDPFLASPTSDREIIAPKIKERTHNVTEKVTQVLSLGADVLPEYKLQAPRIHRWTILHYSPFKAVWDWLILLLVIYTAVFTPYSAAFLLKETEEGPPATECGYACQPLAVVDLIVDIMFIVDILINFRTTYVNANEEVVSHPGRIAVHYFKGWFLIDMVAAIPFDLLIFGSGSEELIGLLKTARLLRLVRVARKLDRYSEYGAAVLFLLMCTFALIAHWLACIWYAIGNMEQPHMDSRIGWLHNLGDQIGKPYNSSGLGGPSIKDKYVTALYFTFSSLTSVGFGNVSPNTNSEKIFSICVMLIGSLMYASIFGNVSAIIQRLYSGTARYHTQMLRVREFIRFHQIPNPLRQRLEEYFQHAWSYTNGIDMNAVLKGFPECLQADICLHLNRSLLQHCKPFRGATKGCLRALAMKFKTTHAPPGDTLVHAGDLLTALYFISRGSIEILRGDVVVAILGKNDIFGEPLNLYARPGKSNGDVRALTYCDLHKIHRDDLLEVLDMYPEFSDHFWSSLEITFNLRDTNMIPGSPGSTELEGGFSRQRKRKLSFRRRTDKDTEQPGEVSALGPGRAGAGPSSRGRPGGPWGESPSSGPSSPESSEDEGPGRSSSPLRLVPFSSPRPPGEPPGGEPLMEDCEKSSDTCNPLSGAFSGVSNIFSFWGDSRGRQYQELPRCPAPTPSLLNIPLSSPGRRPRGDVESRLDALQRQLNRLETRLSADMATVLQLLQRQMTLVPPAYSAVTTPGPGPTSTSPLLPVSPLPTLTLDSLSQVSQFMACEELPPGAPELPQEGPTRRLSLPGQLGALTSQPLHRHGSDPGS
`CC1=C(C(=O)Nc2ccccn2)C(c2ccccc2Cl)NC(=S)N1` (stereo not shown): the “hERG current change (%, negative = inhibition) at 10uM” value turned out to be 10.1%.
The result for `Cc1ccc(CNC(=O)CO/N=C/c2ccc(C(C)(C)C)cc2)cc1` reads 22.1%; that for `Cn1c(=O)c2c(SCC(=O)NC3CCCC3)nc(CC(C)(C)C)nc2n(C)c1=O`, 5.51%; that for `Cc1ccc(NC(=O)c2sc3nc[nH]c(=O)c3c2C)c(C)c1`, 2.03%.
The result for `C=C(C)CNC(=S)Nc1cccc(S(=O)(=O)NC2=NCCC2)c1` reads 17.3%; that for `O=C(O)CSC1CC(=O)N(c2cccc(Cl)c2)C1=O` (stereo not shown), 15.2%.
For `CCCCS(=O)(=O)N1CCCC(C(=O)NCC2CCCO2)C1` (stereo not shown), the “hERG current change (%, negative = inhibition) at 10uM” value came to 8.43%.
`Cc1n[nH]c(C)c1S(=O)(=O)N1CCN(C2CCCCC2)CC1`: the “hERG current change (%, negative = inhibition) at 10uM” value is reported as -0.909%.
On to `O=C(CSC(=S)N1CCCC1)Nc1cc2c(cc1Br)OCCO2`, for which the “hERG current change (%, negative = inhibition) at 10uM” value came to 11.2%.
The result for `C=CCn1cnc2scc(-c3ccc(CC)cc3)c2c1=O` reads -20.9%; that for `Cc1ccc(CN2CCNC(=O)C2CC(=O)N(C)C2CCOCC2)cc1` (stereo not shown), 9.55%.
`CN(CC(=O)Nc1cccc(F)c1)C(=O)CSc1ccccc1F`: the “hERG current change (%, negative = inhibition) at 10uM” value is reported as 12.8%.
The same measure for `OCCC1CN(Cc2cccc3c2OCO3)CCN1Cc1ccccc1` (stereo not shown): -3.38%.
Take `CCC(C)(C)n1nnnc1C(c1ccc(OC)c(OC)c1)N1CCN(c2ccccc2)CC1` (stereo not shown): the “hERG current change (%, negative = inhibition) at 10uM” value is -39.5%.
The same measure for `COCCN(Cc1ccccc1)C(=O)Cc1ccc(OC)c(S(=O)(=O)N2CCOCC2)c1`: -19%; for `O=C(Nc1ccccc1N1CCCCC1)c1ncoc1-c1cccc(F)c1`: 10.3%.
For the compound `CCOc1ccc(S(=O)(=O)N2CCN(C(=O)c3sccc3C)CC2)cc1`, the “hERG current change (%, negative = inhibition) at 10uM” value is -1.73%.
The same measure for `COc1ccc(C2C(C#N)=C(N)Oc3cc(C)[nH]c(=O)c32)cc1OC` (stereo not shown): 7.08%; for `CCOc1ccc(C(=O)NCc2cccnc2)cc1`: -3.41%.
The same measure for `COc1cc2c(cc1NC(=O)C(C)Sc1nc3ccccc3n1C)oc1ccccc12` (stereo not shown): 16.2%; for `OCCC1CN(Cc2cccn2-c2cccnc2)CCN1Cc1ccccc1` (stereo not shown): -42.4%; for `O=C(NC(Cc1c[nH]c2ccccc12)C(=O)O)/C(=C\c1ccccc1)NC(=O)c1ccccc1` (stereo not shown): 9.54%.
`COC(=O)C1(CCSC)NC(c2ccco2)C2C(=O)N(C)C(=O)C21` (stereo not shown): the “hERG current change (%, negative = inhibition) at 10uM” value was determined as 3.91%.
The result for `O=C(CN1N=C(c2ccc(Cl)cc2)CCC1=O)NCc1cccnc1` reads -26.4%.
The result for `CC(C)c1ccc(N(CC(=O)NCc2cccnc2)S(=O)(=O)c2ccccc2)cc1` reads -27%; that for `Cl.OC12CC3C[C@H](C1)C(N1CCOCC1)[C@@H](C3)C2` (stereo partly shown), 16.9%; that for `COCCN1CSC(=S)N(Cc2ccco2)C1`, 16.2%.
For the compound `CCc1ccc(C(=O)NNC(=O)c2c(CC)noc2C)cc1`, the “hERG current change (%, negative = inhibition) at 10uM” value amounted to 0.904%.
The result for `O=C(NN=C(Cc1ccccc1)Cc1ccccc1)c1ccc(F)cc1` reads -26.4%; that for `O=c1sc2ccccc2n1COc1ccc(Cl)cc1`, 7.8%.
The result for `O=S1(=O)CCN(Cc2cccc(C(F)(F)F)c2)CC1` reads 46.2%; that for `COc1ccc(-n2cc(C(=O)c3ccccc3O)cn2)cc1`, 9.18%.
Turning to `CCc1ccc(CN2CCC(n3nccc3NC(=O)C3CCCC3)CC2)cc1`, the “hERG current change (%, negative = inhibition) at 10uM” value is -76.3%.
The result for `CCOCCn1c(=O)c2c(nc3n2CCN3c2ccc(C)cc2)n(C)c1=O` reads -2.21%; that for `CCOC(=O)C1CCCN(C(=O)c2cncc(Br)c2)C1` (stereo not shown), -4.29%.
The result for `CC1(C)CC(=O)C=C(NCCN2CCN(C(=O)Cc3ccc(Cl)cc3)CC2)C1` reads -6.62%; that for `O=Cc1ccccc1-c1cn(CCCOCc2ccccc2)nn1`, -6.1%.
As for `COc1ccc(C(=O)NNC(=O)C2CCCO2)cc1` (stereo not shown), the “hERG current change (%, negative = inhibition) at 10uM” value came out at 27.1%.
The result for `CC1CN(CC(=O)NCc2ccccc2)CC(C)O1` (stereo not shown) reads 25.2%.
The result for `COC(=O)c1sc(N)c(C(=O)OC)c1Cn1ncc(Cl)c(Cl)c1=O` reads -2.38%; that for `O=C(c1ccco1)N1CCN(C(=O)C2CCCO2)CC1` (stereo not shown), 11.7%.
The same measure for `COc1ccc(NC(=O)CNC(=O)Cc2ccccc2)cc1`: 22.2%; for `O=C(Nc1ccccc1Br)c1c(F)cccc1Cl`: -3.35%; for `CCOC(=O)N1CCN(C(=O)/C(=C\c2ccc(SC)cc2)NC(=O)c2ccccc2)CC1`: -78.5%.
Consider `Cc1cccc(NC(=O)CSc2nnc(CNC(=O)c3ccco3)o2)c1`, for which the “hERG current change (%, negative = inhibition) at 10uM” value is recorded as 8.53%.
The result for `Cc1cccc2cc(CN(CC3CCCO3)C(=S)Nc3ccccc3)c(=O)[nH]c12` (stereo not shown) reads 2.39%.

For the origin of these results see article PMC4336329 (PLoS ONE, 2015).
